For part of its entries the source gives two or more results. This is not the full list of results. An entry can have further records. Values that stand side by side are repeated measurements (runs, samples, wells, individuals or studies).
Assays:
Format in all cases: toxicity, cell-based
HEK-293T = experiment: Multiplex assay against HEK293T; conditions: human, 10 µM, compound concentration 10 uM;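 on Population Tubulin-Different-Phenotype (%): share of the cells with healthy nuclei that show this phenotype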
Outline: (§1)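 Cells stained live at seeding with Hoechst33342, BioTracker Green Microtubule Cytoskeleton Dye, MitoTracker Red and Annexin V Alexa Fluor 680 were imaged on a CQ1 microscope at 37°C and 5% CO2 after compound addition. Their classification by CellPathfinder machine-learning gating ran from Hoechst high-intensity objects versus normal cells, to healthy, pyknosed or fragmented nuclei among normal cells, to mitotic or apoptotic among pyknosed cells. Tubulin, mitochondrial-mass and membrane-permeability phenotypes are per cents of healthy-nucleus cells.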

U2OS = experiment: Multiplex assay against U2OS; conditions: human, 10 µM, compound concentration 10 uM; outline: as §1
Fibroblast = experiment: Multiplex assay against human fibroblast; conditions: 10 µM, compound concentration 10 uM; outline: as §1

COc1cc(C)c(Sc2cnc(NC(=O)c3ccc(CNC(C)C(C)(C)C)cc3)s2)cc1C(=O)N1CCN(C(C)=O)CC1 (stereo not drawn)
Population Mitochondria Different-Phenotype (%) (HEK-293T; 12 h, replicate 1): 16% and 4%
Population Tubulin-Different-Phenotype (%) (HEK-293T; 12 h, replicate 1): 28% and 3%
Population Apoptotic (%) (HEK-293T; 12 h, replicate 2): 14% and 4%
Population Tubulin-Different-Phenotype (%) (HEK-293T; 12 h, replicate 2): 45% and 5%
Population Mitochondria Different-Phenotype (%) (HEK-293T; 24 h, replicate 1): 16% and 3%
Population Tubulin-Different-Phenotype (%) (HEK-293T; 24 h, replicate 1): 41% and 6%
Population Tubulin-Different-Phenotype (%) (HEK-293T; 24 h, replicate 2): 39% and 5%
Population Membrane Permeable-Phenotype (%) (U2OS; 12 h, replicate 1): 36% and 10%
Population Membrane Permeable-Phenotype (%) (U2OS; 12 h, replicate 2): 28% and 8%
Population Mitotic Cells (%) (U2OS; 24 h, replicate 1): 21% and 71%
Population Mitochondria Different-Phenotype (%) (Fibroblast; 12 h, replicate 1): 1% and 7%
Population Tubulin-Different-Phenotype (%) (Fibroblast; 12 h, replicate 2): 10% and 55%
Population Mitochondria Different-Phenotype (%) (Fibroblast; 24 h, replicate 1): 1% and 5%
Population Mitotic Cells (%) (Fibroblast; 24 h, replicate 1): 42% and 8%
Population Tubulin-Different-Phenotype (%) (Fibroblast; 24 h, replicate 1): 3% and 15%
Population Mitochondria Different-Phenotype (%) (Fibroblast; 24 h, replicate 2): 4% and 27%
Population Tubulin-Different-Phenotype (%) (Fibroblast; 24 h, replicate 2): 13% and 55%

CN1CCN(Cc2ccc(-c3cnc4[nH]cc(-c5ccc6[nH]ccc6c5)c4c3)cc2)CC1
Population Apoptotic (%) (HEK-293T; 12 h, replicate 1): 19%, 78%, 20%
Population Healthy Nuclei (%) (HEK-293T; 12 h, replicate 1): 28%, 4%, 61%
Population Mitochondria Different-Phenotype (%) (HEK-293T; 12 h, replicate 1): 17%, 100%, 6%
Population Mitotic Cells (%) (HEK-293T; 12 h, replicate 1): 80%, 21%, 79%
Population Tubulin-Different-Phenotype (%) (HEK-293T; 12 h, replicate 1): 88%, 87%, 10%
Total Cell Count (HEK-293T; 12 h, replicate 1): 932, 243, 700
Population Apoptotic (%) (HEK-293T; 12 h, replicate 2): 72%, 7%, 16%
Population Fragmented Nuclei (%) (HEK-293T; 12 h, replicate 2): 8%, 5%, 2%
Population Healthy Nuclei (%) (HEK-293T; 12 h, replicate 2): 3%, 87%, 79%
Population Hoechst High Intensity Objects (%) (HEK-293T; 12 h, replicate 2): 12% and 2%
Population Mitochondria Different-Phenotype (%) (HEK-293T; 12 h, replicate 2): 83%, 7%, 27%
Population Mitotic Cells (%) (HEK-293T; 12 h, replicate 2): 27%, 92%, 83%
Population Pyknosed Nuclei (%) (HEK-293T; 12 h, replicate 2): 87%, 7%, 17%
Total Cell Count (HEK-293T; 12 h, replicate 2): 188, 1439, 1248
Population Apoptotic (%) (HEK-293T; 24 h, replicate 1): 43%, 87%, 19%
Population Healthy Nuclei (%) (HEK-293T; 24 h, replicate 1): 17%, 2%, 67%
Population Mitochondria Different-Phenotype (%) (HEK-293T; 24 h, replicate 1): 51% and 5%
Population Mitotic Cells (%) (HEK-293T; 24 h, replicate 1): 56%, 12%, 80%
Population Pyknosed Nuclei (%) (HEK-293T; 24 h, replicate 1): 65%, 81%, 14%
Population Tubulin-Different-Phenotype (%) (HEK-293T; 24 h, replicate 1): 72%, 66%, 14%
Total Cell Count (HEK-293T; 24 h, replicate 1): 802, 218, 682
Population Apoptotic (%) (HEK-293T; 24 h, replicate 2): 92%, 22%, 1%
Population Fragmented Nuclei (%) (HEK-293T; 24 h, replicate 2): 17%, 3%, 12%
Population Healthy Nuclei (%) (HEK-293T; 24 h, replicate 2): 3%, 53%, 84%
Population Hoechst High Intensity Objects (%) (HEK-293T; 24 h, replicate 2): 21% and 6%
Population Mitochondria Different-Phenotype (%) (HEK-293T; 24 h, replicate 2): 100%, 64%, 2%
Population Mitotic Cells (%) (HEK-293T; 24 h, replicate 2): 7%, 77%, 98%
Population Pyknosed Nuclei (%) (HEK-293T; 24 h, replicate 2): 79%, 43%, 2%
Population Tubulin-Different-Phenotype (%) (HEK-293T; 24 h, replicate 2): 100%, 98%, 29%
Total Cell Count (HEK-293T; 24 h, replicate 2): 171, 1157, 2308
Population Fragmented Nuclei (%) (U2OS; 12 h, replicate 1): 25% and 5%
Population Healthy Nuclei (%) (U2OS; 12 h, replicate 1): 7%, 22%, 92%
Population Pyknosed Nuclei (%) (U2OS; 12 h, replicate 1): 67%, 60%, 2%
Population Tubulin-Different-Phenotype (%) (U2OS; 12 h, replicate 1): 97% and 26%
Population Apoptotic (%) (U2OS; 12 h, replicate 2): 85%, 63%, 0%
Population Healthy Nuclei (%) (U2OS; 12 h, replicate 2): 10%, 37%, 85%
Population Mitotic Cells (%) (U2OS; 12 h, replicate 2): 14%, 36%, 100%
Population Pyknosed Nuclei (%) (U2OS; 12 h, replicate 2): 72%, 48%, 1%
Population Tubulin-Different-Phenotype (%) (U2OS; 12 h, replicate 2): 100% and 15%
Population Fragmented Nuclei (%) (U2OS; 24 h, replicate 1): 35%, 19%, 11%
Population Healthy Nuclei (%) (U2OS; 24 h, replicate 1): 1%, 14%, 81%
Population Hoechst High Intensity Objects (%) (U2OS; 24 h, replicate 1): 9%, 23%, 6%
Population Mitochondria Different-Phenotype (%) (U2OS; 24 h, replicate 1): 100%, 85%, 29%
Population Mitotic Cells (%) (U2OS; 24 h, replicate 1): 1%, 6%, 35%
Population Pyknosed Nuclei (%) (U2OS; 24 h, replicate 1): 62%, 66%, 7%
Population Tubulin-Different-Phenotype (%) (U2OS; 24 h, replicate 1): 100% and 19%
Population Fragmented Nuclei (%) (U2OS; 24 h, replicate 2): 29%, 5%, 12%
Population Healthy Nuclei (%) (U2OS; 24 h, replicate 2): 6%, 25%, 78%
Population Hoechst High Intensity Objects (%) (U2OS; 24 h, replicate 2): 18%, 33%, 10%
Population Mitotic Cells (%) (U2OS; 24 h, replicate 2): 4%, 0%, 33%
Population Pyknosed Nuclei (%) (U2OS; 24 h, replicate 2): 64%, 69%, 8%
Population Healthy Nuclei (%) (Fibroblast; 12 h, replicate 1): 17%, 49%, 6%
Population Membrane Permeable-Phenotype (%) (Fibroblast; 12 h, replicate 1): 17%, 3%, 16%
Population Mitochondria Different-Phenotype (%) (Fibroblast; 12 h, replicate 1): 23%, 1%, 33%
Population Mitotic Cells (%) (Fibroblast; 12 h, replicate 1): 52% and 14%
Population Pyknosed Nuclei (%) (Fibroblast; 12 h, replicate 1): 54%, 11%, 58%
Population Tubulin-Different-Phenotype (%) (Fibroblast; 12 h, replicate 1): 11%, 0%, 83%
Population Fragmented Nuclei (%) (Fibroblast; 12 h, replicate 2): 69%, 58%, 17%
Population Healthy Nuclei (%) (Fibroblast; 12 h, replicate 2): 28%, 8%, 10%
Population Hoechst High Intensity Objects (%) (Fibroblast; 12 h, replicate 2): 30%, 35%, 6%
Population Membrane Permeable-Phenotype (%) (Fibroblast; 12 h, replicate 2): 13%, 75%, 40%
Population Mitochondria Different-Phenotype (%) (Fibroblast; 12 h, replicate 2): 13%, 0%, 100%
Population Pyknosed Nuclei (%) (Fibroblast; 12 h, replicate 2): 2%, 32%, 72%
Population Tubulin-Different-Phenotype (%) (Fibroblast; 12 h, replicate 2): 31%, 75%, 100%
Population Healthy Nuclei (%) (Fibroblast; 24 h, replicate 1): 10%, 34%, 8%
Population Membrane Permeable-Phenotype (%) (Fibroblast; 24 h, replicate 1): 26%, 1%, 42%
Population Mitochondria Different-Phenotype (%) (Fibroblast; 24 h, replicate 1): 26%, 0%, 14%
Population Pyknosed Nuclei (%) (Fibroblast; 24 h, replicate 1): 39%, 6%, 44%
Population Tubulin-Different-Phenotype (%) (Fibroblast; 24 h, replicate 1): 21%, 0%, 100%
Total Cell Count (Fibroblast; 24 h, replicate 1): 212, 442, 112
Population Fragmented Nuclei (%) (Fibroblast; 24 h, replicate 2): 74% and 5%
Population Membrane Permeable-Phenotype (%) (Fibroblast; 24 h, replicate 2): 12%, 100%, 50%
Population Mitochondria Different-Phenotype (%) (Fibroblast; 24 h, replicate 2): 12%, 100%, 25%
Population Mitotic Cells (%) (Fibroblast; 24 h, replicate 2): 50% and 0%
Population Pyknosed Nuclei (%) (Fibroblast; 24 h, replicate 2): 2%, 69%, 14%
Population Tubulin-Different-Phenotype (%) (Fibroblast; 24 h, replicate 2): 8% and 50%

From ChEMBL document CHEMBL4689842, “EUbOPEN Chemogenomics Library wave 1” (2021)
